Experimental data reported in PubChem BioAssay AID485281 (National Center for Advancing Translational Sciences (NCATS), 2010).
Out of some 350,000 compounds screened, about 260 (0.074%) were called active. Inconclusive means that the source gave no clear call. Such entries were picked first, then a sample of the others. The call rests on the fitted dose curve; in most records, active means well fitted inhibition curve with a large enough effect; inconclusive means small, poorly fitted or top-dose-only effect; inactive means no such curve, though single readings can be large or run the other way. Potencies beside an inconclusive call are fits to weak or partial responses and may not hold up.

molecular target: Ferritin light chain (Equus caballus) (UniProt P02791); assay: qHTS Assay for Identification of Novel General Anesthetics; settings: apoferritin/1-aminoanthracene competitive binding, fluorescence; series mostly up to 77.5 µM; further: nearly all actives have a fitted effect of over 20% in size
Chain of UniProt P02791 (P02791 whole entry, looked up): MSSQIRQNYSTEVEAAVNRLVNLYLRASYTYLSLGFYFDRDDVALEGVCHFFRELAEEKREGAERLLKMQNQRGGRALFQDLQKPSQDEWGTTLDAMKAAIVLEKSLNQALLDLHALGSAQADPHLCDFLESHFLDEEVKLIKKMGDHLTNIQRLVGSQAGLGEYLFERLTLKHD
Method in brief: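 Steps: apoferritin (10 uM) was premixed with half-saturated 1-AMA in PBS, compounds were pin-transferred, plates stood 10 min at room temperature, fluorescence was read at 380/535 nm, and curves were fitted with a Hill equation.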
Potency means the concentration at half of the fitted maximal effect; tags describe the fitted curve by direction and shape.

Compound	Potency
Cc1ccc(NC(=O)Cn2c(=O)n(CCCS(=O)(=O)C3CCCCC3)c(=O)c3ccccc32)cc1F	inconclusive: 3.55 µM [inhibitor, full curve]
CC(C)c1noc2ncc(C(=O)c3cc(Cl)cc(Cl)c3O)cc12	inconclusive: 28.2 µM [inhibitor, partial curve]
O=C1C2C3CCC(C3)C2C(=O)N1c1ccc2ccccc2c1 (configuration not stated)	inconclusive: 3.55 µM [inhibitor, full curve]
Cc1ccc(/C=N/NC(=O)CNC(=O)c2cccs2)o1	inconclusive: 25.1 µM [inhibitor, partial curve]
Cc1nc2cc(-c3cccc(F)c3)nn2c(C)c1CCC(=O)NC(C)c1ccc2c(c1)OCCO2 (configuration not stated)	inactive
CCn1c(Cc2ccccc2)nnc1SCC(=O)Nc1ccccc1N1CCOCC1	inactive
Cc1ccc(S(=O)(=O)N/N=C/c2ccc(OS(=O)(=O)c3ccc(C)c([N+](=O)[O-])c3)cc2)cc1	inconclusive: 25.1 µM [inhibitor, partial curve]
Cc1ccc(C(=O)Nc2c(C(=O)NCc3ccco3)cnn2-c2ccccc2)cc1	inconclusive: 31.6 µM [inhibitor, single point]
COC(=O)c1cc(S(=O)(=O)N2CCN(c3cc(C)ccc3C)CC2)c[nH]1	inconclusive: 22.4 µM [inhibitor, partial curve]
COc1cc(NC(=O)C/C(C)=N/NC(=O)c2cccs2)c(OC)cc1Cl	inconclusive: 15.8 µM [inhibitor, partial curve]
CCOC(=O)C(C)(C)C(=O)C(C)(C)C(O)c1ccccn1 (configuration not stated)	inconclusive: 15.8 µM [inhibitor, partial curve]
O=C(NCc1cccc(Cl)c1)c1ccc2c(c1)OCCO2	inconclusive: 17.8 µM [inhibitor, partial curve]
COc1ccc2[nH]c3c(c2c1)CCNC3(C)CCc1ccc(Cl)nc1 (configuration not stated)	inactive
Cc1ccc(N(CC(=O)Nc2cccc(C)c2)S(=O)(=O)c2cccc3nonc23)cc1	inconclusive: 1.58 µM [inhibitor, full curve]
O=C(c1cccc2ccccc12)N1CCN(c2ccccc2F)CC1	inconclusive: 50.1 µM [inhibitor, single point]
COc1ccc(/C=N/NC(=O)Cn2cnc3ccccc3c2=O)cc1	inconclusive: 50.1 µM [inhibitor, single point]
CCn1c(SCC(=O)c2ccc(OC)cc2)nnc1C1CC1	inconclusive: 31.6 µM [inhibitor, single point]
FC(F)(F)c1cnc(Nc2ccc(N3CCOCC3)cc2)c(Cl)c1	inconclusive: 35.5 µM [inhibitor, partial curve]
O=C(NCc1ccc2c(c1)CCN2C(=O)c1ccccc1)c1ccc(Br)o1	inconclusive: 22.4 µM [inhibitor, partial curve]
CC1CCN(CCCNC(=O)c2ccc(Cn3c(=S)[nH]c4ccc(Br)cc4c3=O)cc2)CC1	inconclusive: 39.8 µM [inhibitor, partial curve]
COc1cccc(/C=C/C(=O)OCC(=O)Nc2ccc(Cl)c(S(=O)(=O)N(C)C)c2)c1OC	inconclusive: 10 µM [inhibitor, partial curve]
Cc1ccc(C(=O)OCc2cn(-c3ccccc3)nn2)cc1	inconclusive: 31.6 µM [inhibitor, partial curve]
COCCN(CCOC)C(=O)c1cc2sc3ccccc3c2s1	inactive

Compound	Potency
Cc1cccc(NC(=S)N/N=C/c2ccc([N+](=O)[O-])s2)c1	inconclusive: 35.5 µM [inhibitor, partial curve]
CC(C)(C)c1ccc(C(=O)NNC(=O)CCC(=O)Nc2ccccc2)cc1	inconclusive: 50.1 µM [inhibitor, single point]
CCN1C(=S)N[C@@H](c2cccc(C(F)(F)F)c2)C(C(=O)OC)=C1C	inconclusive: 11.2 µM [inhibitor, partial curve]
Cc1ccc(OCc2nc(C#N)c(NCc3ccc4c(c3)OCO4)o2)cc1	inconclusive: 7.08 µM [inhibitor, partial curve]
O=[N+]([O-])c1cc(CN2CCN(c3cccc(C(F)(F)F)c3)CC2)c2cccnc2c1O	inconclusive: 22.4 µM [inhibitor, single point]
Cc1c(C(C)NC(=O)Nc2ccc(F)cc2F)cnn1C (configuration not stated)	inactive
O=C(NCCc1c[nH]c2ccccc12)C(F)(F)C(F)F	inconclusive: 25.1 µM [inhibitor, partial curve]
Cc1cccc(OCc2nnc(-c3ccccc3)o2)c1	inconclusive: 31.6 µM [inhibitor, single point]
CCN1CCN(C(=O)c2ccc3c(c2)N(Cc2ccc(F)cc2)C(=O)c2ccccc2S3(=O)=O)CC1	inconclusive: 17.8 µM [inhibitor, partial curve]
Cc1cccn2c(=O)c(C=O)c(N3CCCCC3)nc12	inactive
N#C/C(=C\c1cn[nH]c1-c1ccc(Cl)cc1)C(=O)NCc1ccccc1	inconclusive: 28.2 µM [inhibitor, partial curve]
COc1ccc(CC(=O)c2ccc(O)cc2O)cc1	inactive
Cc1cc([N+](=O)[O-])nn1Cc1ccccc1F	inconclusive: 39.8 µM [inhibitor, partial curve]
COc1ccc(/C=C2\CCc3ccccc3C2=O)cc1Cn1nc(C)cc1C	inconclusive: 28.2 µM [inhibitor, partial curve]
COC(=O)c1ccccc1NC(=O)N1CCN(C/C=C/c2ccccc2)CC1	inactive
O=C(Nc1cccc(S(=O)(=O)N2CCCCC2)c1)c1ccc(OCC2CCCO2)cc1 (configuration not stated)	inactive
O=C(N/N=C/c1c(Cl)cccc1Cl)c1n[nH]c2c1CCCC2	inconclusive: 44.7 µM [inhibitor, single point]
N/C(=N\OC(=O)/C=C/c1ccc(Br)cc1)c1ccccn1	inactive
COC(=O)c1ccc(NC(=O)C2C3CCC(C3)C2C(=O)O)cc1 (configuration not stated)	inconclusive: 50.1 µM [inhibitor, single point]
CSc1nc(C)cc(OCCO)n1	inconclusive: 50.1 µM [inhibitor, single point]
O=C(c1cc(-c2cccc(Cl)c2)nc2ccccc12)N1CCCC1	inconclusive: 28.2 µM [inhibitor, partial curve]
N#CC(C#N)=Cc1ccc(-c2ccc(S(=O)(=O)N=C(N)N)cc2)o1	inactive
O=C(N/N=C\c1ccc(F)cc1)c1cc(OCC(F)(F)F)ccc1OCC(F)(F)F	inconclusive: 35.5 µM [inhibitor, partial curve]

Compound	Potency
COc1ccc(CNCCC(c2ccc(OC(C)C)cc2)c2ccccc2OC)cc1 (configuration not stated)	inconclusive: 28.2 µM [inhibitor, partial curve]
Cc1cc(N/N=C/c2ccc(F)cc2)nc(NCc2ccccc2)n1	inactive
Cc1cccc(NC(=O)CC2C(=O)OCCN2Cc2ccccc2)c1 (configuration not stated)	inconclusive: 50.1 µM [inhibitor, single point]
O=C(NCc1c(F)cccc1F)c1cc(COc2c(F)cccc2F)on1	inconclusive: 11.2 µM [inhibitor, partial curve]
Cc1ccccc1C(=O)NC(=O)Nc1ccc(-n2nc(C(F)(F)F)cc2C(F)(F)F)cc1	inactive
CCCn1c(NCc2c[nH]c3ccccc23)nc2ccccc21	inconclusive: 35.5 µM [inhibitor, partial curve]
O=C(CN1N=C(c2ccc(Cl)cc2)CCC1=O)NCc1cccs1	inconclusive: 7.08 µM [inhibitor, partial curve]
CCOc1cc(S(=O)(=O)Nc2ccc(CC)cc2)ccc1Cl	inconclusive: 3.55 µM [inhibitor, partial curve]
CC(=O)N1CCCc2cc(S(=O)(=O)Nc3ccc(OC(F)(F)F)cc3)ccc21	inconclusive: 35.5 µM [inhibitor, single point]
CCc1cccc2c(C(=O)COC(=O)c3c(C)noc3C)c[nH]c12	inconclusive: 35.5 µM [inhibitor, partial curve]
Cc1cccc(NC(=O)c2cccc(N3C(=O)C4CCC(C)CC4C3=O)c2)c1C (configuration not stated)	inconclusive: 15.8 µM [inhibitor, partial curve]
CCc1ccc2c(Cl)c(C(=O)N/N=C/c3c[nH]c4ccccc34)sc2c1	inactive
COc1ccccc1C(CCNCc1ccccc1)c1ccc(OC(C)C)cc1 (configuration not stated)	inactive
COC(=O)C1=C(C)N(Cc2ccccc2)C(=NCCc2ccccn2)N[C@H]1c1cccc(C(F)(F)F)c1	inconclusive: 25.1 µM [inhibitor, partial curve]
CCOC(=O)C1=C(O)C(=O)N(c2ccc(S(N)(=O)=O)cc2)C1c1cccc([N+](=O)[O-])c1 (configuration not stated)	inactive
Cc1ccc(Nc2nc(CSc3nnc(-c4ccccc4)n3C)cs2)cc1	inconclusive: 50.1 µM [inhibitor, single point]
CCOC(=O)c1ccc(NC(=O)c2sc3nc4n(c(=O)c3c2C)CCC4)cc1	inconclusive: 2 µM [inhibitor, partial curve]
Brc1cccc(CN2CCCCCC2)c1	inconclusive: 28.2 µM [inhibitor, single point]
O=C(COc1ccc([N+](=O)[O-])cc1)NN=C1CCCC1	inconclusive: 20 µM [inhibitor, partial curve]
Cc1ccc(C23CC4CC(CC(NC(=O)NN)(C4)C2)C3)cc1	inconclusive: 12.6 µM [inhibitor, partial curve]
Cc1cccc(N2CCN(c3ccc4cc(S(=O)(=O)N5CCC(C)CC5)ccc4n3)CC2C)c1 (configuration not stated)	inactive
